# In all, about 320,000 compounds went through this assay and about 200 (0.062%) were called active. The shares of active, inactive and inconclusive entries below differ from those in the screen. The call rests on the fitted dose curve; in most records, active means well fitted activation curve with a large enough effect; inconclusive means small, poorly fitted or top-dose-only effect; inactive means no such curve, though single readings can be large or run the other way. Potencies of inconclusive entries are left out as doubtful fits.
# Experiment: qHTS assay for re-activators of p53 using a Luc reporter; further: nearly all actives have a fitted effect of over 45% in size; on activity change, positive = activation: % of control where 0% means no effect
# Details: H1299 p53-A138V BP100-luciferase reporter, luminescence, 24 h; series mostly up to 92.2 µM; activity change, positive = activation: at the top concentration
# In short: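 H1299 (p53-null), stable ts p53-A138V + BP100-Luc; 1000 cells/well, Opti-MEM/10% FBS; cpd 4 pt, 1:5; 24 h, 37 deg C, 5% CO2; detection reagent 10 min RT; luminescence.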
# Potency means the concentration at half of the fitted maximal effect; tags describe the fitted curve by direction and shape.
SMILES,Potency,"activity change, positive = activation"
O=C(N/N=C/c1ccc(O)cc1)c1csc2c1CCCC2,"inconclusive [activator, partial curve, poor fit]",–
Cc1ccc(/C=C2\SC(=S)N(CC3CCCO3)C2=O)o1 (stereo not given),"inconclusive [activator, single point]",–
COc1ccc(Cc2nc3ccc(C(=O)NCc4cc(C)no4)cc3o2)cc1,"inconclusive [activator, partial curve, poor fit]",–
CCCC(=O)NC(NC(=S)Nc1ccc(N=Nc2ccccc2)cc1)C(Cl)(Cl)Cl (stereo not given),"inconclusive [activator, single point]",–
COc1ccc(-c2cc(-c3ccccc3O)[nH]n2)cc1OC,"inconclusive [activator, partial curve, poor fit]",–
CN(CC(=O)N1CCCCCC1)S(=O)(=O)c1ccccc1,"inconclusive [activator, single point]",–
CC12CC(NC(=O)N1c1cccc(C(=O)NCc3ccccc3)c1)c1ccccc1O2 (stereo not given),–,inactive: 1.34%
O=c1[nH]c(/C=C/c2ccccc2Cl)nc2ccccc12,"inconclusive [activator, partial curve, poor fit]",–
Cc1nn(-c2ccccc2)c(Cl)c1C(=O)NCC1CCCO1 (stereo not given),–,inactive: 6.28%
Cc1ccc(NC(=S)Nc2ccc(F)cc2)c(C)c1,–,inactive: -2.04%
Cc1cc(Cl)ccc1NC(=S)Nc1ccccn1,"inconclusive [activator, partial curve, poor fit]",–
O=C1NC2(C=Cc3c(ccc4ccccc34)O2)Oc2ccccc21 (stereo not given),"inconclusive [activator, partial curve, poor fit]",–
O=C(OCc1cc(=O)n2ccsc2n1)c1ccc(O)cc1O,"inconclusive [activator, partial curve, poor fit]",–
Cc1noc2c1C(c1ccc(N(C)C)cc1)C1=C(CC(C)(C)CC1=O)N2 (stereo not given),–,inactive: 0.242%
Cc1occc1C(=O)N/N=C/c1ccc(-c2ccccc2)cc1,"inconclusive [activator, full curve, poor fit]",–
Cc1onc(-c2ccccc2Cl)c1C(=O)NNC(=O)c1ccc(F)cc1,–,inactive: -0.716%
O=C(/C=C/Nc1ccc(Br)cc1F)c1ccco1,–,inactive: -5.93%
COC(C(=O)N/N=C(\C)c1ccc(C)cc1)c1ccccc1 (stereo not given),"inconclusive [activator, partial curve, poor fit]",–
CC1CCN(C(=O)c2ccccc2SCC(=O)NCC2CCCCC2)CC1,–,inactive: 4.96%
Nc1nnc(CC(=O)N/N=C/c2ccc(-c3cccc(C(=O)O)c3)o2)s1,"inconclusive [activator, single point]",–
O=C(NC1CCSc2ccccc21)c1cccc([N+](=O)[O-])c1 (stereo not given),"inconclusive [activator, single point]",–
CCCCN(Cc1ccccc1)S(=O)(=O)c1ccc2[nH]c(=O)oc2c1,"inconclusive [activator, single point]",–
NC(=O)c1cc2ccccc2oc1=NCc1ccccc1,"inconclusive [activator, single point]",–

SMILES,Potency,"activity change, positive = activation"
COc1ccc(CCC(=O)NCC23CC4CC(CC(C4)C2)C3)cc1,–,inactive: 2.45%
Cc1ccc(SCC(=O)Nc2ccccc2C(=O)O)cc1,"inconclusive [activator, partial curve, poor fit]",–
CCCNC(=O)c1noc2c1CCc1ccccc1-2,"inconclusive [activator, partial curve, poor fit]",–
CC(=O)N/C(=C\c1ccccc1)C(=O)OCC(=O)Nc1cc(S(=O)(=O)N(C)C)ccc1C,–,inactive: -1.57%
COc1ccccc1NC(=O)Nc1nnc(CC(=O)Nc2ccccc2)s1,–,inactive: 4.85%
Cc1cc(C)nc(N/N=C/c2ccccc2OCc2ccc(Cl)cc2)n1,"inconclusive [activator, single point]",–
CC1=C(C(=O)Nc2ccccn2)C(c2ccc(Br)cc2)NC(=S)N1 (stereo not given),"inconclusive [activator, partial curve, poor fit]",–
O=C1OC(c2ccc3c(c2)OCO3)N(C(=O)c2ccc(Cl)c(Cl)c2)c2ccccc21 (stereo not given),"inconclusive [activator, full curve, poor fit]",–
Oc1ccccc1/C=N/c1c(-c2ccco2)nc2ccccn12,"inconclusive [activator, single point]",–
O=C(Nc1ncc(Cc2cccc(Cl)c2)s1)c1cccs1,"inconclusive [activator, partial curve, poor fit]",–
COc1ccc(C(=O)NC2CC(C)(C)NC(C)(C)C2)cc1OC,"inconclusive [activator, partial curve, poor fit]",–
N/C(=N\OC(=O)c1cccc2ccccc12)c1cccnc1,"inconclusive [activator, full curve]",–
CCCCNC(=O)c1cc(-c2ccc(OC)c(OC)c2)on1,"inconclusive [activator, single point]",–
CC1CCN(c2nc(-c3cccnc3)nc3scc(-c4ccccc4)c23)CC1,–,inactive: -10.1%
COc1ccc(OCC(=O)Nc2ccccc2-c2ccccc2)cc1,–,inactive: -2.98%
COCCCNC(=S)Nc1ccc2c(c1)OCCO2,"inconclusive [activator, partial curve, poor fit]",–
O=C(COc1ccccc1[N+](=O)[O-])N/N=C/c1ccccn1,"inconclusive [activator, full curve, poor fit]",–
CN(C)CCCN(C(=O)c1ccc([N+](=O)[O-])o1)c1nc2cc3c(cc2s1)OCO3,–,inactive: 2.88%
COCCSc1nnc(NC(=O)c2ccc(OC)c([N+](=O)[O-])c2)s1,–,inactive: -0.585%
COCC(C)n1c(C)cc(C(=O)Cn2c(=O)oc3ccccc32)c1C (stereo not given),"inconclusive [activator, single point]",–
O=C(NNC(=O)C12CC3CC(CC(C3)C1)C2)c1ccccc1F,–,inactive: 21.9%
O=C(CCSc1nc2ccccc2s1)N/N=C/c1c(O)ccc2ccccc12,"inconclusive [activator, partial curve, poor fit]",–
